# Results published in article PMC9911399, “Two distinct binding modes provide the RNA-binding protein RbFox with extraordinary sequence specificity”.
# Numbering of substitutions follows the chain as printed; changes in the protein carry UniProt numbers. This is one part of the list.
# T1: RBFOX1 RRM (Homo sapiens, UniProt Q9NWB1 109-208)
# T1 sequence: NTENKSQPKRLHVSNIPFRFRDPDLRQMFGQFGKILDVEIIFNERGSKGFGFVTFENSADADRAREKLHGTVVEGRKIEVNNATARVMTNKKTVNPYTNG
# B1: CCGAUCU (DNA:RNA)
# RNA: GGGAGACCGGAAUUCAGAUUGUCCCCGAUCUUUAAAUCCCGUCGUAGCCACCA
# DNA 1: CAATCTGAATTCCGGTCTCCC
# DNA 2: TGGTGGCTACGACGGGATT
# B2: CUCAUCA (DNA:RNA)
# RNA: B1 RNA with C26U, G27C, U31A
# DNA 1: CAATCTGAATTCCGGTCTCCC
# DNA 2: TGGTGGCTACGACGGGATT
# B3: CGCGAAA (DNA:RNA)
# RNA: B1 RNA with C26G, G27C, A28G, U29A, C30A, U31A
# DNA 1: CAATCTGAATTCCGGTCTCCC
# DNA 2: TGGTGGCTACGACGGGATT
# B4: UAAUCCC (DNA:RNA)
# RNA: B1 RNA with C25U, C26A, G27A, A28U, U29C, U31C
# DNA 1: CAATCTGAATTCCGGTCTCCC
# DNA 2: TGGTGGCTACGACGGGATT
# B5: UUGGCGA (DNA:RNA)
# RNA: B1 RNA with C25U, C26U, A28G, U29C, C30G, U31A
# DNA 1: CAATCTGAATTCCGGTCTCCC
# DNA 2: TGGTGGCTACGACGGGATT
# B6: AAACCAU (DNA:RNA)
# RNA: B1 RNA with C25A, C26A, G27A, A28C, U29C, C30A
# DNA 1: CAATCTGAATTCCGGTCTCCC
# DNA 2: TGGTGGCTACGACGGGATT
# B7: UGAGUAU (DNA:RNA)
# RNA: B1 RNA with C25U, C26G, G27A, A28G, C30A
# DNA 1: CAATCTGAATTCCGGTCTCCC
# DNA 2: TGGTGGCTACGACGGGATT
# B8: CGCAAAG (DNA:RNA)
# RNA: B1 RNA with C26G, G27C, U29A, C30A, U31G
# DNA 1: CAATCTGAATTCCGGTCTCCC
# DNA 2: TGGTGGCTACGACGGGATT
# B9: ACGUUGU (DNA:RNA)
# RNA: B1 RNA with C25A, A28U, C30G
# DNA 1: CAATCTGAATTCCGGTCTCCC
# DNA 2: TGGTGGCTACGACGGGATT
# B10: GAACAUC (DNA:RNA)
# RNA: GGGAGACCGGAAUUCAGAUUGUCCGAACAUCUUAAAUCCCGUCGUAGCCACCA
# DNA 1: CAATCTGAATTCCGGTCTCCC
# DNA 2: TGGTGGCTACGACGGGATT
# B11: CUUGGCG (DNA:RNA)
# RNA: B1 RNA with C26U, G27U, A28G, U29G, U31G
# DNA 1: CAATCTGAATTCCGGTCTCCC
# DNA 2: TGGTGGCTACGACGGGATT
# B12: ACCUGGC (DNA:RNA)
# RNA: B1 RNA with C25A, G27C, A28U, U29G, C30G, U31C
# DNA 1: CAATCTGAATTCCGGTCTCCC
# DNA 2: TGGTGGCTACGACGGGATT
# B13: GUACGAC (DNA:RNA)
# RNA: B10 RNA with A26U, A29G, U30A
# DNA 1: CAATCTGAATTCCGGTCTCCC
# DNA 2: TGGTGGCTACGACGGGATT
# B14: GAUGCUU (DNA:RNA)
# RNA: B10 RNA with A27U, C28G, A29C, C31U
# DNA 1: CAATCTGAATTCCGGTCTCCC
# DNA 2: TGGTGGCTACGACGGGATT
# B15: UAAGAAU (DNA:RNA)
# RNA: B10 RNA with G25U, C28G, U30A, C31U
# DNA 1: CAATCTGAATTCCGGTCTCCC
# DNA 2: TGGTGGCTACGACGGGATT
# B16: UCGUUGG (DNA:RNA)
# RNA: B1 RNA with C25U, A28U, C30G, U31G
# DNA 1: CAATCTGAATTCCGGTCTCCC
# DNA 2: TGGTGGCTACGACGGGATT
# B17: GGCUAGA (DNA:RNA)
# RNA: B10 RNA with A26G, A27C, C28U, U30G, C31A
# DNA 1: CAATCTGAATTCCGGTCTCCC
# DNA 2: TGGTGGCTACGACGGGATT
# B18: GUCGUUC (DNA:RNA)
# RNA: B10 RNA with A26U, A27C, C28G, A29U
# DNA 1: CAATCTGAATTCCGGTCTCCC
# DNA 2: TGGTGGCTACGACGGGATT
# B19: CAAAGCU (DNA:RNA)
# RNA: B1 RNA with C26A, G27A, U29G
# DNA 1: CAATCTGAATTCCGGTCTCCC
# DNA 2: TGGTGGCTACGACGGGATT
# B20: ACCAAGA (DNA:RNA)
# RNA: B1 RNA with C25A, G27C, U29A, C30G, U31A
# DNA 1: CAATCTGAATTCCGGTCTCCC
# DNA 2: TGGTGGCTACGACGGGATT
# Target: T1, RBFOX1 RRM
# Experiment: EMSA; HiTS-Eq, 1 nM pool, 10 min; buffer printed only for the single-RNA assays: 10 mM Tris pH 7.5, 150 mM NaCl, 3.4 mM EDTA, 0.001% NP-40, 30 C
# Conditions: tags: His6 N-terminal (pET28a); label: 5' 32P
# How it was run: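 Purified wild-type or mutant RbFox RRM at increasing concentrations was equilibrated with 1 nM of 5′-radiolabelled RNA carrying 7 randomized nucleotides for 10 min in 50 µL. Unbound RNA was separated by 8% native PAGE and sequenced. Relative association constants came from read-count changes of each RNA species compared with the control reaction, normalised to the cognate motif.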
row,Binder,binding signal
1,B1,0.00633 KA relative to UGCAUGU
2,B2,0.00209 KA relative to UGCAUGU
3,B3,0.00934 KA relative to UGCAUGU
4,B4,0.00365 KA relative to UGCAUGU
5,B5,0.0201 KA relative to UGCAUGU
6,B6,0.000334 KA relative to UGCAUGU
7,B7,0.013 KA relative to UGCAUGU
8,B8,0.00606 KA relative to UGCAUGU
9,B9,0.0125 KA relative to UGCAUGU
10,B10,0.00261 KA relative to UGCAUGU
11,B11,0.0206 KA relative to UGCAUGU
12,B12,0.0129 KA relative to UGCAUGU
13,B13,0.0085 KA relative to UGCAUGU
14,B14,0.0201 KA relative to UGCAUGU
15,B15,0.00854 KA relative to UGCAUGU
16,B16,0.0263 KA relative to UGCAUGU
17,B17,0.0109 KA relative to UGCAUGU
18,B18,0.0139 KA relative to UGCAUGU
19,B19,0.00391 KA relative to UGCAUGU
20,B20,0.00182 KA relative to UGCAUGU
